Assays:
[1] = target: mouse GPC3-His protein (Sino Biological, Cat. No. 50989-M08B) (mouse) (UniProt Q8CFZ4); assay: ELISA; antibody 100 nM
[2] = target: mouse GPC3-His protein (Sino Biological, Cat. No. 50989-M08B) (mouse) (UniProt Q8CFZ4); assay: ELISA; antibody 0.001 nM
[3] = target: mouse GPC3-His protein (Sino Biological, Cat. No. 50989-M08B) (mouse) (UniProt Q8CFZ4); assay: ELISA; antibody 0.0001 nM
[4] = target: mouse GPC3-His protein (Sino Biological, Cat. No. 50989-M08B) (mouse) (UniProt Q8CFZ4); assay: ELISA; antibody 10 nM
[5] = target: mouse GPC3-His protein (Sino Biological, Cat. No. 50989-M08B) (mouse) (UniProt Q8CFZ4); assay: ELISA; antibody 0.01 nM
[6] = target: mouse GPC3-His protein (Sino Biological, Cat. No. 50989-M08B) (mouse) (UniProt Q8CFZ4); assay: ELISA; antibody 0.1 nM
[7] = target: mouse GPC3-His protein (Sino Biological, Cat. No. 50989-M08B) (mouse) (UniProt Q8CFZ4); assay: ELISA; antibody 1 nM

Sequence of UniProt Q8CFZ4 (Q8CFZ4 25-558 limits assumed): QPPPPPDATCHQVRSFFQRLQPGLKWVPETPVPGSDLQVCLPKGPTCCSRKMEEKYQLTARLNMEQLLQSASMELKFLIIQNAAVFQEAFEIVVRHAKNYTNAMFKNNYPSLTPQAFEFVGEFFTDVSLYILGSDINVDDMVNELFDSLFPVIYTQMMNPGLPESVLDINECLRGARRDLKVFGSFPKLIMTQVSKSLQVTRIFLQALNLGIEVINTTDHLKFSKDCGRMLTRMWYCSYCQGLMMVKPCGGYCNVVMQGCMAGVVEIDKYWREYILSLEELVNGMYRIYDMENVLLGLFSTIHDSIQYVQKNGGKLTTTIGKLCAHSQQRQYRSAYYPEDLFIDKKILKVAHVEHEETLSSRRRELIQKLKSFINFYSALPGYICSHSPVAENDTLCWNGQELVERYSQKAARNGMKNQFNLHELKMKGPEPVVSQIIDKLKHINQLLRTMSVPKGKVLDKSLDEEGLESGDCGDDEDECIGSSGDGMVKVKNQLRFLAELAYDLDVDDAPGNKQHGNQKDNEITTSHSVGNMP

- OD450 [1]: 0.837
- OD450 [2]: 0.05
- OD450 [3]: 0.05
- OD450 [4]: 0.293
- OD450 [5]: 0.049
- OD450 [6]: 0.053
- OD450 [7]: 0.074
B1: S001-NB150-20(cyno+) VHH-hFc (Fc fusion)
chain: QVQLVESGGGLVQAGGSLKLSCAASGRSFSPYAMGWFRQAPGKDREFVAAISNSGGSTYYADAVKGRFSISRDNAKNTVYLQMNNLEPEDTAVYYCTGPVKRYSTDFQGGDYWGQGTQVTVSS[human IgG1 Fc with changes left out]
